The text below walks through data of publication PMC4336329 (PLoS ONE, 2015).

Screen size: about 310,000 compounds; about 2,200 (0.71%) showed an effect of 50% or more. Effects have a minus sign here. The list shows a part of the results. Where a SMILES comes first, the peptide text is derived from it. The star is where a group is joined. Cbz = O=C(OCc1ccccc1)*; Boc = CC(C)(C)OC(=O)*

The assay deals with human ether-à-go-go-related gene (hERG) potassium channel (human, UniProt Q12809). The assay is described as follows: primary screen, population patch clamp on CHO cells stably expressing hERG.
Sequence of human ether-à-go-go-related gene (hERG) potassium channel (Q12809 whole entry, looked up): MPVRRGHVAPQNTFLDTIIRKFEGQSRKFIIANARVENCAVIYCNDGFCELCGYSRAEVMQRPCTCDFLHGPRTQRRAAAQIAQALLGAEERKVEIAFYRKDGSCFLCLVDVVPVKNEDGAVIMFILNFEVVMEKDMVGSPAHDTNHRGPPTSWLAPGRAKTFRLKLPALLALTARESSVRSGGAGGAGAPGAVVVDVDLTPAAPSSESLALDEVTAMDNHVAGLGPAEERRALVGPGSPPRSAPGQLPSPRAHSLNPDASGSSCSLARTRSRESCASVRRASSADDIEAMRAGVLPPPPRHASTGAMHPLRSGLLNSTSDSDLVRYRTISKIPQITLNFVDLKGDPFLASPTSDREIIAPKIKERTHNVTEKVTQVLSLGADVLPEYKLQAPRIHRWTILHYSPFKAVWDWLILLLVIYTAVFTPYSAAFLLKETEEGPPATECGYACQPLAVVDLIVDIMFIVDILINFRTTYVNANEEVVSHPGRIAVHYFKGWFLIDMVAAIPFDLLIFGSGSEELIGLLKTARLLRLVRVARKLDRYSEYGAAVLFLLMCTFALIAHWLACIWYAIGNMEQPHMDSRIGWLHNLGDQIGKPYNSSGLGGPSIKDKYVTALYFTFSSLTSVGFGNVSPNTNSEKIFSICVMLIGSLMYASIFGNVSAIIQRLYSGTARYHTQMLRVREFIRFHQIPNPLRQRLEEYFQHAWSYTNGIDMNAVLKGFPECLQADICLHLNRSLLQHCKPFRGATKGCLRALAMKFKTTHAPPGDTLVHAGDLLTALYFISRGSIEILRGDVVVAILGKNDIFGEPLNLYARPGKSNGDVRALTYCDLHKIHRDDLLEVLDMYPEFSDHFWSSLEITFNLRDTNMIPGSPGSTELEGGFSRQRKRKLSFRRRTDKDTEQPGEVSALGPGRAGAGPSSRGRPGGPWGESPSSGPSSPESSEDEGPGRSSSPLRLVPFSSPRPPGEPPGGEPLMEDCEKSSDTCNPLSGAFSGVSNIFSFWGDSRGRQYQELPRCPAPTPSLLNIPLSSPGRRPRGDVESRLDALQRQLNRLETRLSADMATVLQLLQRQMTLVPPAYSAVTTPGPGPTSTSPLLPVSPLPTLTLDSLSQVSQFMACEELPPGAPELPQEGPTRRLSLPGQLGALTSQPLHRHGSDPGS
Consider `Cn1c(N)c(C(=O)COc2ccc(Cl)cc2Cl)c(=O)n(C)c1=O`, for which the “hERG current change (%, negative = inhibition) at 1uM” value amounted to 12.3%. The figure for `COC(=O)C1=C(C)NC(=O)NC1c1ccsc1` (stereo not drawn) is 5.08%; for `CC1CCC(NS(=O)(=O)c2ccc(N3CCCC3=O)cc2)CC1` (stereo not drawn) it is 15.9%. In the case of `COc1ccc(CC(=O)Nc2ccc(S(=O)(=O)Nc3nccc(C)n3)cc2)cc1`, the “hERG current change (%, negative = inhibition) at 1uM” value was -1.21%. For the molecule `CCCC(=O)OCC(=O)Nc1cc(Cl)ccc1[N+](=O)[O-]`, the “hERG current change (%, negative = inhibition) at 1uM” value stood at 14.7%.

Consider `CCOC(=O)c1cc(C(=O)NN)c(C)nc1C`, for which the “hERG current change (%, negative = inhibition) at 1uM” value was 11.5%. To `CCN(CC)c1ncnc2c1cnn2C` belongs 17.1%. The figure for `CC(C)(C)OC(=O)NCCCC[C@H](NC(=O)[C@H](Cc1c[nH]c2ccccc12)NC(=O)OCc1ccccc1)C(=O)O` (Cbz-Trp-Lys(Boc)-OH) is 18.1%. To `COC(=O)c1cc(C(=O)OC)cc(N2C(=O)CC(NNC(=O)c3ccccc3Br)C2=O)c1` (stereo not drawn) belongs 4.08%; to `Cc1ccc(N(CC(=O)NCc2ccccc2)C(=O)CCC(=O)Nc2ccccn2)cc1`, -11.1%. Regarding `CC(=O)Nc1ccc(S(=O)(=O)Nc2nc(C)nc3sc4c(c23)CCC4)cc1`, the “hERG current change (%, negative = inhibition) at 1uM” value is reported as 7.61%.

Consider `COc1ccccc1OCCSc1nnnn1-c1ccc(C)cc1`, for which the “hERG current change (%, negative = inhibition) at 1uM” value came out at 2.05%. To `Cc1coc(C)c1C(=O)CC1(O)C(=O)Nc2cc(Cl)cc(Cl)c21` (stereo not drawn) belongs 9.39%. Take `CCOc1ccc(/C=N/NC(=O)c2ccccc2Cl)cc1CN1CC2CC(C1)c1cccc(=O)n1C2` (stereo not drawn): the “hERG current change (%, negative = inhibition) at 1uM” value worked out at 9.79%. The figure for `O=C(CSc1nnnn1-c1cccc2ccccc12)N1CCOCC1` is -5.83%; for `CC(C)(C)n1ncc2c(=O)n(CC(=O)N3CCCc4ccccc43)cnc21` it is 13.3%; for `COc1ccc(C2C(C(=O)/C=C/c3ccco3)=C(O)C(=O)N2CCN2CCOCC2)cc1` (stereo not drawn) it is 11%. To `O=C(NC(=S)NC1CCSC1=O)c1cccs1` (stereo not drawn) belongs 14.2%; to `COc1ccc([N+](=O)[O-])cc1NC(=O)c1ccccc1N(C)S(C)(=O)=O`, 7.36%; to `CCCCCCCCN1[C@@H](CC(=O)O)c2ccc(C(F)(F)F)cc2S1(=O)=O`, 11.5%. The figure for `CC(=O)c1cc(-c2nc3ccccc3n2C)n(C)c1` is 12%; for `CCCNC(=O)COC(=O)c1ccccc1C(=O)c1ccc(Cl)c([N+](=O)[O-])c1` it is 14%. Take `CC(C)CC(C(=O)O)C(C)CC(=O)Nc1ccn(-c2ccccc2)n1` (stereo not drawn): the “hERG current change (%, negative = inhibition) at 1uM” value is listed as -8.99%. The figure for `Nc1nc(-c2cc3ccccc3o2)cs1` is 9.32%. To `CCC1=NN(C(=O)C(=O)Nc2ccc(OC)cc2)C(O)(C(F)(F)F)C1` (stereo not drawn) belongs -3.93%; to `N/N=C(\c1ccccc1)c1cc(Cl)ccc1N`, 11.7%; to `COc1ccc(C(CNC(=O)c2ccc(OCc3c(C)noc3C)cc2)N2CCCC2)cc1` (stereo not drawn), 7.88%. The figure for `CN(c1cccc(NC(=O)c2cccc([N+](=O)[O-])c2)c1)S(C)(=O)=O` is 18.1%. For the molecule `Cc1cccc2cc(C3CC(c4ccco4)=NN3S(=O)(=O)c3ccccc3)c(Cl)nc12` (stereo not drawn), the “hERG current change (%, negative = inhibition) at 1uM” value was 2.74%. As to `O=C(Nc1ccncc1)Nc1cccc(C(F)(F)F)c1`, the “hERG current change (%, negative = inhibition) at 1uM” value came out at 10.6%. To `N#Cc1ccc(NC(=O)COC(=O)c2ccc(F)c(S(=O)(=O)N3CCOCC3)c2)cc1` belongs -1.45%. To `COc1ccccc1OCC(=O)NCC1CCCN(Cc2cnn(C)c2C)C1` (stereo not drawn) belongs 9.1%; to `CSCCC(NC(=O)c1ccccc1Cl)C(=O)OCC(=O)N1CCCC1=O` (stereo not drawn), 14.2%.

`COc1ccccc1NS(=O)(=O)c1cc(NC(=O)Nc2ccc(Cl)cc2Cl)ccc1N1CCCCC1`: the “hERG current change (%, negative = inhibition) at 1uM” value is 6.28%. To `O=C(COC(=O)c1ccccc1Nc1ccccc1)NCc1ccco1` belongs 4.36%; to `CCCNC(=O)c1ccc(N2CCC3(CC2)CC(c2ccccc2)=NO3)c(NC(=O)c2ccco2)c1`, -15.6%. For the molecule `COc1ccc2cc(C3(C)NC(=O)N(CC(=O)NCCC4=CCCCC4)C3=O)ccc2c1` (stereo not drawn), the “hERG current change (%, negative = inhibition) at 1uM” value is listed as -0.626%. The figure for `COC(=O)[C@@H](CC(C)C)NS(=O)(=O)N(Cc1ccccc1)[C@@H](CC(C)C)C(=O)OC` is 11.1%. With `O=[N+]([O-])C1=C(Nc2cccc3ccccc23)CS(=O)(=O)C1`, the “hERG current change (%, negative = inhibition) at 1uM” value stood at 8.5%. The figure for `Cc1ccc2c(c1)cc1c(=O)n(CC(=O)N3CCC4(CC3)OCCO4)nc(C)n12` is 5.81%; for `COC(=O)CNc1nc(OC)nc(N(C)C)n1` it is 10.7%.

`S=c1[nH]nc(-c2ccco2)n1-c1ccc(Br)cc1`: the “hERG current change (%, negative = inhibition) at 1uM” value stood at 14.3%. On to `CC(C)CCNC(=O)CSc1nc2ccccc2c(=O)[nH]1`, for which the “hERG current change (%, negative = inhibition) at 1uM” value is listed as 8.23%.

Take `O=C(Nc1cccnc1)c1ccc([N+](=O)[O-])o1`: the “hERG current change (%, negative = inhibition) at 1uM” value turned out to be 13.6%. To `O=C(CNC(=O)c1ccc(Cl)cc1)OCCN1C(=O)c2ccccc2C1=O` belongs 5.68%.
